In PMC4336329 (PLoS ONE, 2015):
In all, about 310,000 compounds went through this assay and about 2,200 (0.71%) showed an effect of 50% or more. The effect is printed as a negative number. The list shows a part of the results.

The compounds below were run against human ether-à-go-go-related gene (hERG) potassium channel (human, UniProt Q12809) (assay: primary screen, population patch clamp on CHO cells stably expressing hERG).
Sequence of human ether-à-go-go-related gene (hERG) potassium channel (Q12809 whole entry, looked up): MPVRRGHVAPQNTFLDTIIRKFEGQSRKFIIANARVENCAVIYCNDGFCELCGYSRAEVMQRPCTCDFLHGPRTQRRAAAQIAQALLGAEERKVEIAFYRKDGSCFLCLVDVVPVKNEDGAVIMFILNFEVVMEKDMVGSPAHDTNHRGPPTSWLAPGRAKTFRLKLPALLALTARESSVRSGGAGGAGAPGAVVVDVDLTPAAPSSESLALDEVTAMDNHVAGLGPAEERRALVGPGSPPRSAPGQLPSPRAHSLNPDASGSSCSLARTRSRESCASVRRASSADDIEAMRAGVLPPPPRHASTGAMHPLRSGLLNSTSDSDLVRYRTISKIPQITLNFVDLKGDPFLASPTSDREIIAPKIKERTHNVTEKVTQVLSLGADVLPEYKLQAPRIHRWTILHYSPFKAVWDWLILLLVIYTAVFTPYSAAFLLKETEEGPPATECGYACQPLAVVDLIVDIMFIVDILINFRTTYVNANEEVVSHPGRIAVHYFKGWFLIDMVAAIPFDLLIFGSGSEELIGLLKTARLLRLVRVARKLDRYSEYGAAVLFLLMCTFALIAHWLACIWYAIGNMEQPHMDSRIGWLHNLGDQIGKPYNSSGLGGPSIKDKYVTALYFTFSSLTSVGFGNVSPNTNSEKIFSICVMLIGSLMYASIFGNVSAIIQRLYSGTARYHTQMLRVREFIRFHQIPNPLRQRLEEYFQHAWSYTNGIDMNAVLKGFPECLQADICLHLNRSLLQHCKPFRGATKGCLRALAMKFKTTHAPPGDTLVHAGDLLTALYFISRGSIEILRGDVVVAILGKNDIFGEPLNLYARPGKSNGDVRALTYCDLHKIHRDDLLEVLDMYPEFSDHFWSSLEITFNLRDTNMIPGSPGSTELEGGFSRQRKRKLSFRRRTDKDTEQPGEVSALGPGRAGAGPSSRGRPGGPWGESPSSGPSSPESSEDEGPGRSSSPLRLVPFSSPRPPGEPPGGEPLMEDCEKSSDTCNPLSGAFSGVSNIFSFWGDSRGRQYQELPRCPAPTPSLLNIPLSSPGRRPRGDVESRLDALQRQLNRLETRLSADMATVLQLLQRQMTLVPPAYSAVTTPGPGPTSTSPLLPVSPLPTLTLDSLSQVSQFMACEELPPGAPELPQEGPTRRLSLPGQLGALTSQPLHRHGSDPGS

Row | Compound | hERG current change (%, negative = inhibition) at 1uM
1 | CN1/C(=C\C(=O)Nc2ccc(Cl)cc2)C(C)(C)c2ccccc21 | 13.4%
2 | Cc1ccc(-n2c(-c3ccco3)nc3c(cnn3-c3ccc(C)cc3)c2=O)cc1 | 15.3%
3 | O=C1c2ccccc2C(=O)N1OCc1ccc(Cl)cc1 | 8.72%
4 | COc1cc2cc(C#N)c(SCC(=O)N3CCOCC3)nc2cc1OC | 11.1%
5 | O=C(Nc1ccccc1)C1CC(=O)N(c2ccc3c4c(cccc24)CC3)C1 (stereo not drawn) | 12%
6 | CCOc1ccc(NC(C(=O)Nc2cccc(C(C)=O)c2)c2ccccc2)cc1 (stereo not drawn) | -2.99%
7 | CCOc1ccc(NC(=O)c2ccccc2OC)cc1 | 14.6%
8 | Cc1ccc(=O)n(-c2ccccc2)c1 | 4%
9 | CCC(C(=O)NCCCN1CC(C)CC(C)C1)n1ncn2c(cc3occc32)c1=O (stereo not drawn) | 7.26%
10 | Nc1c(C(=O)NCc2ccc(F)cc2)c2nc3ccccc3nc2n1CCCN1CCOCC1 | 15.3%
11 | Cc1ccsc1/C=N/NC(=O)c1ccc2c(c1)OCCO2 | 13.3%
12 | O=C(NNC(=O)c1nc(Cl)ccc1Cl)c1ccc(F)cc1 | 4.11%
13 | COc1ccc(C2c3[nH]c4ccccc4c3CCN2Cc2cccn2-c2ncccn2)cc1C (stereo not drawn) | 8.42%
14 | Cn1ccnc1SCC(=O)c1cccc(C(F)(F)F)c1 | -16.9%
15 | COc1ccc(CCNC(=S)Nc2cc(C)cc(C)c2)cc1 | 3.09%
16 | Cc1ccnc(NC(=O)c2ccc(Cl)c([N+](=O)[O-])c2)c1 | 9.32%
17 | COc1ccc2oc(C(=O)OCC(=O)N(C)C3CCS(=O)(=O)C3)c(C)c2c1 (stereo not drawn) | 4.33%
18 | O=C1C2C3C=CC(C3)C2C(=O)N1Nc1ccc([N+](=O)[O-])cc1[N+](=O)[O-] (stereo not drawn) | 6.79%
19 | N#C/C(=N\[O-])c1nc(-c2ccccc2)cs1.[K+] | 1.39%
20 | O=C(/C=C\c1cn(-c2ccccc2)nc1-c1ccc2c(c1)OCCO2)N1CCOCC1 | 9.09%
21 | OCC[C@@H]1C[C@H](O)[C@@H](O)[C@]2(OCCc3ccccc32)O1 | 19%
22 | CNC(=S)Nc1ccc(OC)c(OC)c1 | 9.05%
23 | O=C(N[C@@H](Cc1ccccc1)C(=O)OCc1ccccc1)c1nc[nH]c1C(=O)N[C@@H](Cc1ccccc1)C(=O)OCc1ccccc1 | 8.61%

Row | Compound | hERG current change (%, negative = inhibition) at 1uM
24 | CC1(C)CC(=O)C(C2=NC3(CCCCC3)Cc3ccccc32)=C(O)C1 | -7.51%
25 | O=C(NCc1ccc(Cl)cc1)C(=O)NCC1OCCN1C(=O)c1ccc(Cl)cc1 (stereo not drawn) | 14.6%
26 | C=CCN1C(=O)N(c2ccccc2)C(=O)C1CC(=O)Nc1ccc(OC)cc1 (stereo not drawn) | 11.4%
27 | N/C(=N\NC(=O)c1cccs1)c1cc2cc(Cl)ccc2oc1=O | 8.82%
28 | Cc1sc(NC(=S)NC(=O)c2ccc(C(C)(C)C)cc2)c(C#N)c1C | 3.03%
29 | CCCCN(C(=O)c1oc2ccc(OCC)cc2c1C)c1c(N)n(CCCC)c(=O)[nH]c1=O | 10.2%
30 | Cc1c(O)nc(SCC(=O)Nc2nccs2)n(-c2ccccc2F)c1=O | 2.6%
31 | CC(C)Cn1c(N)c(C(=O)COC(=O)c2ccc(O)cc2O)c(=O)n(C)c1=O | 9.49%
32 | CC(=NCCCn1ccnc1)C1=C(O)c2ccccc2C1=O | -33.7%
33 | CCc1ccc(NC(=O)CSc2nc3cc(C(=O)OC)ccc3c(=O)n2CC2CCCO2)cc1 (stereo not drawn) | 15.2%
34 | CC(C)(C)CC(=O)Nc1cc2c3c(c1)CC(=O)N3CCC2 | 21.4%
35 | NC(=S)c1c(Cl)cc(C(F)(F)F)cc1Cl | 7.69%
36 | CCCN(CCC)C(=O)CSc1nc2n[nH]c(C)c2c(=N)n1-c1ccc(OCC)cc1 | 8.14%
37 | CCn1c(SCC(=O)Nc2nccs2)nnc1-c1ccncc1 | 13.5%
38 | Cc1cccc(C(=O)N2CCC(c3nc(-c4ccc(S(=O)(=O)N5CCOCC5)cc4)no3)CC2)c1 | 2.03%
39 | CCN1C(=O)/C(=C/N(C)c2ccccc2)OC1=S | 12.2%
40 | S=c1[nH]nc(-c2ccccc2Br)n1Cc1ccccc1 | 14.2%
41 | O=C(NCc1ccc2c(c1)OCO2)c1cccc(F)c1 | 12.7%
42 | COc1nc(NCCO)nc(Nc2ccc([N+](=O)[O-])cc2)n1 | -11.6%
43 | OCCOCCn1c2ccccc2c2ccccc21 | 0.304%
44 | Cn1c(=O)c2c(nc(NCc3ccco3)n2Cc2ccccc2Cl)n(C)c1=O | 13.6%
45 | Cc1ccc2nc(-c3ccccc3)c(-c3ccccc3)nc2c1 | 10.2%
